{"source": "patent US9574016B2", "about": "“Complex of bi-specific antibody and digoxigenin conjugated to a therapeutic or diagnostic agent” (Hoffmann-La Roche Inc., priority 2009, dated 2017)", "assay_type_in_all_cases": "cell-based, human", "key": {"AHA1 mRNA in MCF-7 cells": {"test_system": "AHA1 mRNA in MCF-7 cells", "assay": "AHA1 mRNA knockdown by DIG-labeled siRNA-lipid nanoparticles (bDNA)", "settings": "no siRNA, only antibody (3.24 nM), 12 h", "experimental": "(iii) Complexation of DIG-labeled siRNA-lipid nanoparticles with <Target-DIG> bispecific antibodies. DIG-labeled siRNA-lipid nanoparticles containing 1 pmol of AHA1-, DIG-coupled AHA1-, or luciferase (LUC)-siRNAs were incubated with 3.24 pmol of bispecific antibodies directed against either the tumor-associated LewisY oligosaccharide and DIG <LeY-DIG> or against the sialic acid-binding transmembrane protein, CD22, and DIG <CD22-DIG> or with Dulbecco's Phosphate Buffered Saline (D-PBS) (Invitrogen, Carlsbad, Calif.) in a final volume of 200 μl Opti-MEM® vitrogen GmbH, Darmstadt, Germany) at RT for 30 min.\n(iv) Evaluation of targeting- and mRNA silencing properties of DIG-labeled siRNA-lipid nanoparticles in combination with <Target-DIG> bispecific antibodies in vitro; MCF-7 cells were seeded on a 96-well plate with a density of 15,000 cells/well in 80 μl medium (RPMI 1640 Medium, 10% fetal calf serum, 100 U/ml penicillin/streptomycin; Biochrom AG, Berlin, Germany) and incubated overnight in a cell incubator (37° C., 95% H2O, 5% CO2). […] After incubation, cells were lysed and AHA1- and GAPDH-mRNA concentrations were quantified using a commercially available bDNA-quantification system (Affymetrix Inc., Fremont, Calif.). […]"}, "[1]": {"test_system": "Aha1 mRNA in LeY positive MCF7 cells", "assay": "bDNA assay of bispecific / DIG-siRNA / CPP-PolyArg complexes", "settings": "MCF7, 3 h plus 21 hours", "experimental": "To analyze these complexes for their ability to specifically induce mRNA silencing in target cells, we compared targeted siRNA transfection of complexes that contained either a <LeY>-<DIG> and a <CD22>-<DIG> bispecific antibody, which were charged with a DIG labeled siRNA targeting either Aha1 or as a control luciferase. These complexes were formed by pre-incubation Dig-siRNA with <Dig> bispecific at room temperature for 30 minutes, followed by addition of the CPP-PolyArg (siRNA binding) entity to generate the full transfection competent complex. The entire complex was incubated for further 30 minutes at room temperature before adding to LeY positive MCF7 cells for a duration of three hours in Optimem medium. After subsequent incubation in growth medium for another 21 hours, the cells were lysed, and their mRNA content was analyzed using a bDNA assay."}, "LeY positive MCF7 cells": {"test_system": "LeY positive MCF7 cells", "assay": "FACS analysis of DIG-eGFP delivery and internalization", "settings": "3.43 nM antibody", "experimental": "For these analyses we used LeY positive MCF7 cells and the bispecific <LeY>-<DIG> antibody. 3×10^5 cells were seeded per well of a 96-well-plate and used immediately. 3.43 nM of the <LeY>-<DIG> bispecific antibody in FACS buffer (PBS containing 5% FCS) was added to the wells. A <DIG> antibody at the same concentration was used as a non-targeting control. For detection of bound antibodies, a secondary Cy5 labeled antibody (Jackson Immunoresearch 709-176-1490; Cy5 F(ab′)2 Donkey anti-human IgG (H+L)) was added to a final concentration of 3.43 nM. After washing in FACS buffer the cells were incubated for one hour at 4° C. and then analyzed with the FACS canto II (BD Biosciences). To show <LeY>-<DIG> bispecific antibody mediated eGFP delivery to cells, 3.43 nM of the <LeY>-<DIG> bispecific antibody in FACS buffer (PBS containing 5% FCS) pre-incubated with a twofold molar amount of both [1:2] and [1:3] DIG-eGFP were added to the wells. After washing in FACS buffer the cells were analyzed with the FACS canto II (BD Biosciences).\nTo analyze the ability of DIG-eGFP to monitor internalization, we performed FACS experiments. For these analyses we used LeY positive MCF7 cells and the bispecific <LeY>-<DIG> antibody. 3×10^5 cells were seeded per well of a 96-well-plate and used immediately. […] The cells were then analyzed with the FACS canto II (BD Biosciences)."}}, "data": [{"molecule": "LeY-DIG: bispecific LeY-DIG antibody, <LeY> sequence derived from monoclonal antibody B3; SEQ. ID NO. 57 and 58 (antibody, humanized <LeY><DIG> heavy chain; humanized <LeY> light chain) heavy: DVKLVESGGGLVQPGGSLKLSCATSGFTFSDYYMYWVRQTPEKRLEWVAYISNDDSSAAYSDTVKGRFTISRDNARNTLYLQMSRLKSEDTAIYYCARGLAWGAWFAYWGQGTLVTVSS[human IgG1 constant region not shown]GGGGSGGGGSQVQLVESGGGLVKPGGSLRLSCAASGFTFSDYAMSWIRQAPGKCLEWVSSINIGATYIYYADSVKGRFTISRDNAKNSLYLQMNSLRAEDTAVYYCARPGSPYEYDKAYYSMAYWGQGTTVTVSSGGGGSGGGGSGGGGSDIQMTQSPSSLSASVGDRVTITCRASQDIKNYLNWYQQKPGKAPKLLIYYSSTLLSGVPSRFSGSGSGTDFTLTISSLQPEDFATYYCQQSITLPPTFGCGTKVEIK light: DVLMTQSPLSLPVSLGDQASISCRSSQIIVHSNGNTYLEWYLQKPGQSPKLLIYKVSNRFSGVPDRFSGSGSGTDFTLKISRVEAEDLGVYYCFQGSHVPFTFGSGTKLEIKRTVAAPSVFIFPPSDEQLKSGTASVVCLLNNFYPREAKVQWKVDNALQSGNSQESVTEQDSKDSTYSLSSTLTLSKADYEKHKVYACEVTHQGLSSPVTKSFNRGEC", "values": [{"measurement": "relative AHA1-mRNA concentration", "setting": "AHA1 mRNA in MCF-7 cells", "value": 94.6, "unit": "%"}, {"measurement": "Aha1 mRNA silencing", "setting": "[1]", "value": "Reduction of Ahal mRNA was observed"}, {"measurement": "binding / eGFP delivery to MCF7 cells (FACS)", "setting": "LeY positive MCF7 cells", "value": "clear binding to the LeY expressing MCF7 cells"}]}]}
